± gives the standard deviation. The list shows a part of the results, in another mix than the full data.

The assay deals with MIWI (PIWIL1) piRISC loaded with piRNA #1 (30 nt). In words: pre-steady-state target cleavage rate (min^-1); MIWI and MILI are mouse PIWI proteins and EfPiwi is from a freshwater sponge; tags in brackets are library labels; higher = faster piRNA-guided slicing of the target. Particulars: guide: piRNA #1 5'p-UGAGGUAGUAGGUUGUAUAGUAUCCAGAGG; auxiliary factor: 500 nM mouse GTSF1. The method in brief:
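Cleave-'n-Seq reactions paired 0.1 nM transcribed, DNA-blocked target RNA library with 1 nM active affinity-purified piRISC holding one synthetic guide, plus or minus 500 nM GTSF1 partner protein, in HEPES–potassium acetate buffer at 33 °C for 0–8 or 0–960 min. After sequencing of uncleaved targets and normalisation to depth and weakly complementary targets, the pre-steady-state cleavage rate was taken from a burst-and-steady-state fit. Three trials were pooled, and k3 was capped at 0.0001 min^-1.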
For GCUCUGGAUACUAUUCUACCUACUACCUCA, the “pre-steady-state target cleavage rate” value turned out to be 1.24 ± 0.1.
To GGAGACGAUACUAUAGAACCAACUACCUCA belongs 0.0639 ± 0.0077; to GGAGACGAUACUAUACAAGCUACAACCUCA, 0.856 ± 0.048; to CCUCUGGUAACUAUACAACCUACUACCUCA, 0.755 ± 0.035.
Take GGAGUGGUUACUAUACAACCAACUACCUCA: the “pre-steady-state target cleavage rate” value was found to be 0.117 ± 0.0086.
As for GGAGACCUAUGAUAUGUUCCUACUACGUGA, the “pre-steady-state target cleavage rate” value is less than 0.0001.
To GGAGACCUUACUAUACAAGCUACUACGUCA belongs 0.761 ± 0.052; to GGACUGGAUACAUUACAACCUACUACCUCA, 1.24 ± 0.12.
To GGAGACCUUACUAUACAACCUACUACCUCCA belongs 1.21 ± 0.071.
To GGUCUGGAUACUAUACAACCAAGUACCUCA belongs 0.0286 ± 0.0051; to GGAGACCUAUGAUAAGAACCUACUACCUCA, less than 0.0001.
In the case of GGAGACCAAACUAUACAACCUACUAGCUCA, the “pre-steady-state target cleavage rate” value stood at 0.465 ± 0.071.
Take GGACUGGAUACUAUACAACCUUCUACCUGA: the “pre-steady-state target cleavage rate” value was 0.136 ± 0.038.
Turning to GGAGACCUAUCUUUUCAACCUACUACCUCA, the “pre-steady-state target cleavage rate” value turned out to be 0.0982 ± 0.032.
To CCUCUGGAUAGUAUACAACCUACUACGUCA belongs 0.297 ± 0.036.
Then GGUCUGGAUACUAUACAACCUACUACGUGA, with 0.151 ± 0.042; and GGAGACGAUACUAUUACAACCUACUACCUCA, with 1.45 ± 0.1.
Then GGAGACCUAUGUAUACAACAUACUACCUCA, with 0.0122 ± 0.003; and GGAGACCAUACAUACAACCUACUACCUCA, with 0.36 ± 0.056.
CCUCUGGAAACUAUACAAGCUACUACCUCA: the “pre-steady-state target cleavage rate” value is 1.49 ± 0.068.
To GGACAGGAUACUAUACAACCUUCUACCUCA belongs 0.646 ± 0.036; to GGUCUGGAUACUAUACAACCUUGUACCUCA, 0.0319 ± 0.0072; to GCUCUGGAUAGUAUACAACCUACUACCACA, 0.59 ± 0.043.
Then GGAGUGGAUAACUAUACAACCUACUACCUCA, with 1.12 ± 0.081; and GGACACCAUACUAUACAACCUACUACCUCA, with 1.38 ± 0.1.
Consider GGAGACGUUACUAUAGAACCUACUACCUCA, for which the “pre-steady-state target cleavage rate” value is 0.83 ± 0.059.
Then GGAGUCGAUACUAUACAACCUAGUACCUCA, with 0.248 ± 0.028.
Then GGAGAGGAUACUAUCCAACCUACUACCUCA, with 1.71 ± 0.081.
To GGUCUGGAAACUAUAGAACCUACUACCUCA belongs 1.2 ± 0.077.
As to GGAGACGAUACUAUACAACCUACUACCUGA, the “pre-steady-state target cleavage rate” value stood at 0.74 ± 0.087.
To GCUGAGGAUACUAUACAACCUACUACCUCA belongs 1.28 ± 0.059; to GGAGAGGAUCACUAUACAACCUACUACCUCA, 1.08 ± 0.099; to CCUCUGGAUGCUAUACAACCUACUACCUCA, 2 ± 0.13.
Then GGAGACCUAUCUAUACAACCUAGUACGUCA, with 0.138 ± 0.026.
As for GGAGUGCAUACUAUACAAGCUACUACCUCA, the “pre-steady-state target cleavage rate” value worked out at 0.898 ± 0.04.
To GGAGACGAUACUAUACAACCUACAUACCUCA belongs 1.29 ± 0.095; to CCUCUGAAUACUAUACAACCUACUACCUCA, 2.09 ± 0.13.
For the sequence GGAGACGAUACUAUACAAGCUACUACCACA, the “pre-steady-state target cleavage rate” value came to 1.3 ± 0.054.
Then GGAGACCUAACUAUCACAACCUACUACCUCA, with 0.27 ± 0.038.
To GGUCUGGAUACAAUACAACCUACUAGCUCA belongs 0.37 ± 0.056.

Values taken from the supplement of paper PMC10338343.
